Consider 25 sequences from PMC5700166.

What all share (experiment): protein-binding microarray (PBM)
Details in all cases: PBM: ~300 nM protein, 6 mM HEPES pH 7.8, 80 mM KCl, 0.5 mM EDTA, 0.5 mM EGTA, 6% glycerol, 35 ng/ul poly-dIdC, 1% milk, 1 h, room temperature; Ap Aiptasia and Nv Nematostella (sea anemones) / Co Capsaspora / Aq Amphimedon (sponge) / Dm Drosophila / Hu human; RHD is the Rel homology domain; high values mean tight binding; most listed sequences are background and not binding sites; double strand, one strand shown

For one assay, the target named is T1, GST-Ap-NF-kB RHD (UniProt A0A913YAJ5).
T1 sequence: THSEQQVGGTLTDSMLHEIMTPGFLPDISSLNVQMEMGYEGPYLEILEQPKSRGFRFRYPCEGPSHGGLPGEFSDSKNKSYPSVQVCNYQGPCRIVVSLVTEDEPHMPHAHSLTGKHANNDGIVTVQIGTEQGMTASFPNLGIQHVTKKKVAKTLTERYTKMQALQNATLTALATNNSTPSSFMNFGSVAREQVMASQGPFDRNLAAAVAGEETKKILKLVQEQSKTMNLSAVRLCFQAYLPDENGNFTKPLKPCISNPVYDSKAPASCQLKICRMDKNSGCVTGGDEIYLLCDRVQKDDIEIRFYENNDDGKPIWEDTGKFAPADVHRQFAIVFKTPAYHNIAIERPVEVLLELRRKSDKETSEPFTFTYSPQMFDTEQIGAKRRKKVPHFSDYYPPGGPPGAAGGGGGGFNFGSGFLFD

The target in assay [1] is T2, GST-Nv-NF-kB (Cys allele) (UniProt E5G601).
T2 sequence: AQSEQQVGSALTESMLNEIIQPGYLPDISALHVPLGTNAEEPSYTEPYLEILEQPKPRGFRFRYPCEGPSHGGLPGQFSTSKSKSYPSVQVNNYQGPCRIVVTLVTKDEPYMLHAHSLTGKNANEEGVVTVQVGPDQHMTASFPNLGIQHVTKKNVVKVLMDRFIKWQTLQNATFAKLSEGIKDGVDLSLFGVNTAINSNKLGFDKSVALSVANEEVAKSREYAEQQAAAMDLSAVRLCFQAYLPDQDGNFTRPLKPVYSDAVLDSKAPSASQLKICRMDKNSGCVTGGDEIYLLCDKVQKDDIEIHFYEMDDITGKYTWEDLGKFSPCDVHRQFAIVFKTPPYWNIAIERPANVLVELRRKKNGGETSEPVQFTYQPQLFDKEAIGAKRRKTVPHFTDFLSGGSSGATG

Another assay addresses T3, GST-Co-NF-kB (UniProt F1ARL5).
T3 sequence: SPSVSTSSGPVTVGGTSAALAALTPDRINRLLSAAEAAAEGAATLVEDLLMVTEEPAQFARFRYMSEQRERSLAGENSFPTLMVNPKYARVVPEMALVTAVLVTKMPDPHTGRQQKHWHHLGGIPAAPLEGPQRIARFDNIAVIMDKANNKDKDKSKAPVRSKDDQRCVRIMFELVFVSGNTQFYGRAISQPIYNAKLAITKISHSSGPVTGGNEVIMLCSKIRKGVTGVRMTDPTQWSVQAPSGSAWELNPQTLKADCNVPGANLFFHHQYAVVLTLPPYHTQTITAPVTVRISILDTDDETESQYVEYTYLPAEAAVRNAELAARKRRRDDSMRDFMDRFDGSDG

For a further assay, the target named is T4, GST-Dm-Relish (UniProt Q94527).
T4 sequence: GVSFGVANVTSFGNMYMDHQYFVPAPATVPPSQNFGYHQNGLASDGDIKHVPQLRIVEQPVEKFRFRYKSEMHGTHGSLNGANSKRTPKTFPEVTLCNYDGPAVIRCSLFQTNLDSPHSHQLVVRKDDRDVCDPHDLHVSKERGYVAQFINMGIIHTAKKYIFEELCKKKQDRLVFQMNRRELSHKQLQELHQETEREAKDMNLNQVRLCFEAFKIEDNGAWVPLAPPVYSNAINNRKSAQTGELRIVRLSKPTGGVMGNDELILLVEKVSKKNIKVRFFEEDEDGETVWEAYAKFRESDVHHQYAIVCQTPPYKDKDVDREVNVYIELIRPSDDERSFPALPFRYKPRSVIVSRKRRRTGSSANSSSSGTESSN

For another assay, the target named is T5, GST-Aq-NF-kB (UniProt A9Y5G7).
T5 sequence: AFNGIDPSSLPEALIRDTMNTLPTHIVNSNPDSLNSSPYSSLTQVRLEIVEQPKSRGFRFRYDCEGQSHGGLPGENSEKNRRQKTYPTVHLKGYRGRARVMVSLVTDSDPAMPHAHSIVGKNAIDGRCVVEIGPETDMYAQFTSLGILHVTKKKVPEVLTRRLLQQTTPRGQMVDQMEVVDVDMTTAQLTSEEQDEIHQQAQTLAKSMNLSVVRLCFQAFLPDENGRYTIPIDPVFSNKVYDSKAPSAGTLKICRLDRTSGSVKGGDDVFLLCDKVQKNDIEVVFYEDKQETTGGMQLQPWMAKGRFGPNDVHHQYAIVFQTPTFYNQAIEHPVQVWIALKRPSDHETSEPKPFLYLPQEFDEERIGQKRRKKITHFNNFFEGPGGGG

Only a part is listed here, and it is no random draw. The list includes weakly bound sequences.

As for “CCGATTAACATCAAGAATCGCAGTGATGTTAATCGGGTCTTGATTCGCTTGACGCTGCTG”, the binding signal with GST-Ap-NF-kB RHD is 0.188 z-score; in assay [1], -0.405 z-score; with GST-Co-NF-kB, 0.0977 z-score; with GST-Dm-Relish, 0.0847 z-score; in the assay with GST-Aq-NF-kB, -0.25 z-score.
For the sequence “CCGATTAACATCAAGTTTATCGATGATGTTAATCGGGTCTTGATTCGCTTGACGCTGCTG”, the binding signal was -0.708 z-score with GST-Ap-NF-kB RHD; -0.488 z-score in assay [1]; -0.561 z-score with GST-Co-NF-kB; -0.284 z-score with GST-Dm-Relish; -0.652 z-score in the assay with GST-Aq-NF-kB.
For “CCGATTAACATCATAGGAATGATTGATGTTAATCGGGTCTTGATTCGCTTGACGCTGCTG”, in that order: -0.478 z-score, 0.498 z-score, -0.00322 z-score, -0.0356 z-score and -0.258 z-score.
Taken in the same sequence, the figures for “CCGATTAACATCACAGAGAACCTTGATGTTAATCGGGTCTTGATTCGCTTGACGCTGCTG” were 0.00903 z-score, -0.152 z-score, 0.148 z-score, 0.503 z-score and -0.204 z-score.
“CCGATTAACATCACAACCTGGGCTGATGTTAATCGGGTCTTGATTCGCTTGACGCTGCTG”: the binding signal is 0.293 z-score with GST-Ap-NF-kB RHD; 0.108 z-score in assay [1]; 0.31 z-score with GST-Co-NF-kB; -0.189 z-score with GST-Dm-Relish; -0.213 z-score with GST-Aq-NF-kB.
Taken in the same sequence, the figures for “CCGATTAACATCACAGTGTCTTCTGATGTTAATCGGGTCTTGATTCGCTTGACGCTGCTG” were -0.00472 z-score, -0.276 z-score, -0.693 z-score, -0.223 z-score and -0.487 z-score.
For “CCGATTAACATCATGTTTAGTCCTGATGTTAATCGGGTCTTGATTCGCTTGACGCTGCTG”, the binding signal was -0.442 z-score with GST-Ap-NF-kB RHD; 0.000489 z-score in assay [1]; -0.443 z-score in the assay with GST-Co-NF-kB; 0.0411 z-score in the assay with GST-Dm-Relish; 0.0346 z-score in the assay with GST-Aq-NF-kB.
For “CCGATTAACATCACGTTAATTCCTGATGTTAATCGGGTCTTGATTCGCTTGACGCTGCTG”, the binding signal with GST-Ap-NF-kB RHD is -0.131 z-score; in assay [1], -0.337 z-score; with GST-Co-NF-kB, 0.112 z-score; with GST-Dm-Relish, 0.601 z-score; in the assay with GST-Aq-NF-kB, 0.397 z-score.
For “CCGATTAACATCAATCCTAACAATGATGTTAATCGGGTCTTGATTCGCTTGACGCTGCTG”, in that order: -0.329 z-score, -0.247 z-score, -0.182 z-score, -0.861 z-score and -0.699 z-score.
“CCGATTAACATCATAGGAGTTCTTGATGTTAATCGGGTCTTGATTCGCTTGACGCTGCTG”: the binding signal was -0.0929 z-score with GST-Ap-NF-kB RHD; -0.193 z-score in assay [1]; -0.00984 z-score in the assay with GST-Co-NF-kB; -0.414 z-score in the assay with GST-Dm-Relish; -0.408 z-score in the assay with GST-Aq-NF-kB.
Taken in the same sequence, the figures for “CCGATTAACATCAAGGAATTCCATGATGTTAATCGGGTCTTGATTCGCTTGACGCTGCTG” were 0.382 z-score, -0.0831 z-score, 0.125 z-score, 2.32 z-score and 1.54 z-score.
Taken in the same sequence, the figures for “CCGATTAACATCATGTAACGGAGTGATGTTAATCGGGTCTTGATTCGCTTGACGCTGCTG” were 0.288 z-score, -0.519 z-score, 0.0955 z-score, -0.115 z-score and -0.183 z-score.
Taken in the same sequence, the figures for “CCGATTAACATCAGGCCCGTTTGTGATGTTAATCGGGTCTTGATTCGCTTGACGCTGCTG” were 0.474 z-score, 0.0462 z-score, 0.256 z-score, 0.724 z-score and 0.643 z-score.
Take “CCGATTAACATCAAACATTGCCATGATGTTAATCGGGTCTTGATTCGCTTGACGCTGCTG”: the binding signal with GST-Ap-NF-kB RHD was -0.137 z-score; in assay [1], -0.0869 z-score; in the assay with GST-Co-NF-kB, -0.0557 z-score; with GST-Dm-Relish, -0.527 z-score; in the assay with GST-Aq-NF-kB, -0.454 z-score.
Taken in the same sequence, the figures for “CCGATTAACATCATATAGGTCCGTGATGTTAATCGGGTCTTGATTCGCTTGACGCTGCTG” were -0.253 z-score, 0.257 z-score, 0.0846 z-score, -0.644 z-score and -0.0208 z-score.
As for “CCGATTAACATCAACCCTTGAGATGATGTTAATCGGGTCTTGATTCGCTTGACGCTGCTG”, the binding signal with GST-Ap-NF-kB RHD is 0.371 z-score; in assay [1] it was -0.404 z-score; with GST-Co-NF-kB, -0.174 z-score; in the assay with GST-Dm-Relish, -0.678 z-score; with GST-Aq-NF-kB, -0.254 z-score.
Taken in the same sequence, the figures for “CCGATTAACATCACGCTTTAGGCTGATGTTAATCGGGTCTTGATTCGCTTGACGCTGCTG” were -0.557 z-score, -0.44 z-score, -0.376 z-score, -0.349 z-score and -0.628 z-score.
Taken in the same sequence, the figures for “CCGATTAACATCATATTGTGAGATGATGTTAATCGGGTCTTGATTCGCTTGACGCTGCTG” were 0.365 z-score, 0.0239 z-score, -0.0999 z-score, -0.603 z-score and -0.132 z-score.
For the sequence “CCGATTAACATCAGTACATCATGTGATGTTAATCGGGTCTTGATTCGCTTGACGCTGCTG”, the binding signal with GST-Ap-NF-kB RHD is -0.105 z-score; in assay [1], -0.867 z-score; with GST-Co-NF-kB, -0.53 z-score; in the assay with GST-Dm-Relish, 0.534 z-score; with GST-Aq-NF-kB it was -0.29 z-score.
As to “CCGATTAACATCACCAAATTTCCTGATGTTAATCGGGTCTTGATTCGCTTGACGCTGCTG”, the binding signal turned out to be 0.457 z-score in the assay with GST-Ap-NF-kB RHD; 0.0257 z-score in assay [1]; 0.35 z-score with GST-Co-NF-kB; 0.599 z-score in the assay with GST-Dm-Relish; 0.745 z-score with GST-Aq-NF-kB.
Taken in the same sequence, the figures for “CCGATTAACATCATGGATTAATGTGATGTTAATCGGGTCTTGATTCGCTTGACGCTGCTG” were -1 z-score, -0.247 z-score, -0.193 z-score, 0.487 z-score and -0.461 z-score.
Taken in the same sequence, the figures for “CCGATTAACATCAAGGAATTGCCTGATGTTAATCGGGTCTTGATTCGCTTGACGCTGCTG” were -0.0689 z-score, -0.502 z-score, 0.116 z-score, 0.978 z-score and 0.917 z-score.
As for “CCGATTAACATCAAATCATCAGATGATGTTAATCGGGTCTTGATTCGCTTGACGCTGCTG”, the binding signal with GST-Ap-NF-kB RHD was -0.514 z-score; in assay [1], -0.717 z-score; with GST-Co-NF-kB it was -0.96 z-score; in the assay with GST-Dm-Relish it was -1.24 z-score; with GST-Aq-NF-kB it was -0.482 z-score.
Regarding “CCGATTAACATCATTGCGGCTCATGATGTTAATCGGGTCTTGATTCGCTTGACGCTGCTG”, the binding signal in the assay with GST-Ap-NF-kB RHD was -0.688 z-score; in assay [1], 0.212 z-score; in the assay with GST-Co-NF-kB, -0.739 z-score; with GST-Dm-Relish it was -0.711 z-score; with GST-Aq-NF-kB it was -0.316 z-score.
Taken in the same sequence, the figures for “CCGATTAACATCATCAAATCTCGTGATGTTAATCGGGTCTTGATTCGCTTGACGCTGCTG” were -0.156 z-score, 0.122 z-score, -0.297 z-score, -0.32 z-score and -0.214 z-score.
